The results in this text go back to PMC12040169 (PLOS Biology, 2025).

Some of the results follow.

For this assay, the system named is T1, C. trachomatis L2/434/Bu expressing GFP (CTL2-GFP).
T1 construct: L2/434/Bu GFP intracellular growth in HeLa cells
On the set-up: species or system HeLa; C. trachomatis total inclusion area by high-content imaging, normalised to DMSO. The settings on record: total inclusion area; 28.5 h, 10 µM; inhibitor. The method in brief: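 Bulk GFP and resorufin signals were read first. Wells were then fixed, stained with Hoechst and imaged to detect GFP inclusions and host nuclei. MICs followed the previously described calculation.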
Turning to `Cc1ccc(-c2n[nH]c(=S)n2CC(=O)N(C)Cc2ccc(N3CCOCC3)cc2)cc1` [CBK297908], the “% of control remaining” value is given as 100.604.

For the compound `Nc1nonc1OCCCCOc1nonc1N` [CBK027716], the “% of control remaining” value is given as 5.818.

As for `COc1ccc(-c2csc(Nc3ccc(S(=O)(=O)Nc4cc(C)on4)cc3)n2)cc1OC` [CBK261797B], the “% of control remaining” value is 89.1995.

Take `Cc1nnc(SCCN2CCOC2=O)n1CCc1cccs1` [CBK304029]: the “% of control remaining” value is on record as 86.5973.

With `Clc1cccc(CN2CCC(N3CCN(c4ccccc4)CC3)CC2)c1` [CBK264690G], the “% of control remaining” value was 88.2605.

On to `Cc1nc2cc(-c3nccn3C)nn2c(N2CCN(c3ccc(O)cc3)CC2)c1C` [CBK286427], for which the “% of control remaining” value is 101.17.

Take `O=C(Nc1ccccc1)[C@H]1O[C@H](CCN2CCN(c3ccccc3)CC2)CC[C@@H]1O` [CBK288725]: the “% of control remaining” value turned out to be 92.9152.

In the case of `O=C(Cc1c[nH]c2ccccc12)N1CCC2(CCCN(C(=O)c3c(F)cccc3F)C2)C1` (stereo not drawn) [CBK131605], the “% of control remaining” value was found to be 83.6513.

Turning to `CS(=O)(=O)c1ccc(-c2cnc3nc(N)ccc3c2)cc1` [CBK061916], the “% of control remaining” value came out at 88.5723.

`c1ccc(Cn2c3ccccc3c3nnc(SCc4ccc5nonc5c4)nc32)cc1` [CBK267517]: the “% of control remaining” value is listed as 120.527.

Take `COC(=O)c1sccc1NC(=O)c1ccc(F)cc1Cl` [CBK270325]: the “% of control remaining” value is recorded as 131.993.

Take `O=C(CN1CCN(c2ccccc2)CC1)Nc1ccc(Cl)cc1C(=O)c1ccccc1` [CBK265827]: the “% of control remaining” value is 130.808.

For the compound `COc1ccc(Cl)cc1N1CCN(Cc2ncc[nH]2)CC1` [CBK126418], the “% of control remaining” value came out at 109.869.

Regarding `CN(C(=O)CSc1nnn(C)n1)c1ccccc1` [CBK058129], the “% of control remaining” value is recorded as 90.7019.

As to `CC(C)(C)OC(=O)NC1CCc2ccccc2N(Cc2ccccc2)C1=O` (stereo not drawn) [CBK013366], the “% of control remaining” value amounted to 102.563.

As for `O=C(CN1C(=O)N2CCCN=C2c2ccccc21)N1CCCCCC1` [CBK284399], the “% of control remaining” value was found to be 74.0193.

Regarding `CC(=O)N(Cc1cccnc1)c1nc2cc3c(cc2s1)OCCO3` [CBK287696], the “% of control remaining” value amounted to 89.5916.

Regarding `Cc1cc2ccccc2n1CCCNS(=O)(=O)c1ccc2[nH]c(=O)[nH]c(=O)c2c1` [CBK286362], the “% of control remaining” value amounted to 102.595.

As for `Cc1csc(SC(C)C(=O)N2CCc3ccccc32)n1` (stereo not drawn) [CBK305909], the “% of control remaining” value worked out at 30.1485.

Regarding `O=C(O)CCC(=O)N1CCC(c2nnc3ccccn23)CC1` [CBK287920], the “% of control remaining” value is reported as 84.6311.

On to `O=S(=O)(Nc1ccc(C(O)(C(F)(F)F)C(F)(F)F)cc1)c1cccc2nsnc12` [CBK062096], for which the “% of control remaining” value came out at 123.627.

Consider `O=C(NNC(=S)NCCc1ccccc1)c1ccc(Br)o1` [CBK266818], for which the “% of control remaining” value is 90.2219.

Regarding `O=C(NCC1c2ccccc2CCN1C(=O)CN1C(=O)c2ccccc2C1=O)C1CCCCC1` (stereo not drawn) [CBK262582], the “% of control remaining” value is recorded as 104.284.

Take `CCn1nc(C)c(-c2cncn2CC(C)n2nc(C)cc2C)c1C` (stereo not drawn) [CBK281777]: the “% of control remaining” value stood at 101.112.

Take `Nc1ncc(-c2ccco2)nc1NCc1ccco1` [CBK063682]: the “% of control remaining” value was found to be 93.5249.

As to `O/N=C1/c2ccccc2/C(=N/O)C1c1ccccc1` [CBK261122], the “% of control remaining” value is recorded as 86.297.

Turning to `c1cn2c(-c3ccoc3)cnc(N3CCOCC3)c2n1` [CBK091292], the “% of control remaining” value was 101.271.

Regarding `OCCN(Cc1cccnc1)Cc1cccn1-c1ccc(F)cc1` [CBK283023], the “% of control remaining” value came out at 89.4111.

Consider `COCCn1c(SCc2cc(=O)oc3cc(C)ccc23)nnc1-c1ccc(Cl)cc1` [CBK297517], for which the “% of control remaining” value came to 105.917.

As for `CC(C)C(=O)Nc1cc2ccccc2c(-c2cc(F)cc(F)c2)n1` [CBK085775], the “% of control remaining” value is recorded as 92.8447.

On to `CCN(CC)c1c(C)nc2ccc(C(=O)N3CCN(C)CC3)cn12` [CBK145955], for which the “% of control remaining” value stood at 96.7784.

For the compound `N#CC1=C(N)N2C(=C(C#N)C13CCN(Cc1ccccc1)CC3)Nc1ccccc12` [CBK267241], the “% of control remaining” value was 86.6402.

Regarding `CC(C)NC(=O)C1(Cc2ccc(-c3ccccc3)cc2)CCN(C(=O)C2CCC2)CC1` [CBK285750], the “% of control remaining” value worked out at 101.517.

In the case of `CSCCN1CCN(c2nccnc2Oc2ccc(F)cc2)CC1` [CBK083028T], the “% of control remaining” value is recorded as 87.7831.

As for `CCOC(=O)c1cnc2c(Cl)cc(Cl)cc2c1NCCN1CCOCC1` [CBK307278], the “% of control remaining” value amounted to 62.7751.

On to `c1ccc(NCCOc2cncc(N3CCCC3)n2)cc1` [CBK115670], for which the “% of control remaining” value came to 87.3244.

Regarding `COc1cc2c(cc1NC(=O)C(C)Oc1ccccc1)oc1ccccc12` (stereo not drawn) [CBK264061], the “% of control remaining” value stood at 87.3853.

Take `COc1ccc(CNc2nc(C)n[nH]2)cc1Cl` [CBK288036]: the “% of control remaining” value is given as 115.663.

Regarding `CCOC(=O)c1cccc(NS(=O)(=O)c2cc(Br)ccc2OC)c1` [CBK034336], the “% of control remaining” value was found to be 91.6622.

In the case of `CC(C)(CC(=O)O)CC(=O)Nc1ccc(-c2nc3ccccc3s2)cc1` [CBK299796], the “% of control remaining” value stood at 112.083.

For the compound `O=C(O)c1csc(S(=O)(=O)Nc2ccccc2C(=O)Nc2ccc3c(c2)OCO3)c1` [CBK295655], the “% of control remaining” value was determined as 93.0231.

`CC(C)(C)c1n[nH]c(C2CN(C(=O)CCc3ccco3)CCO2)n1` (stereo not drawn) [CBK305204]: the “% of control remaining” value came to 20.1667.

Regarding `CC(C)C(CO)NC(=O)C1(Cc2ccc(-c3ccc(F)c(F)c3)cc2)CCOCC1` (stereo not drawn) [CBK286525], the “% of control remaining” value was 77.622.

On to `CCOC(=O)c1sc(-c2ccc(Br)cc2)nc1O` [CBK075087], for which the “% of control remaining” value came to 76.0957.

For `Cc1conc1C(=O)N1CCCCC1CN1CCOCC1` (stereo not drawn) [CBK304771], the “% of control remaining” value is on record as 38.6156.

On to `Cc1cc(C(=O)CSc2nc(=O)cc(O)n2CC(C)C)c(C)n1C` [CBK295649], for which the “% of control remaining” value is 106.677.

As for `CCOc1ccc(NC(=O)CSc2nc3nc(C)cc(C)n3n2)cc1` [CBK268278], the “% of control remaining” value is 105.549.

Regarding `Clc1ccccc1CN1CCC(n2cnc3cccnc32)CC1` [CBK283967], the “% of control remaining” value is 90.8172.

`CC(=O)N(C)c1nc(-c2ccccc2C)ccc1C(=O)N(C)C` [CBK106350]: the “% of control remaining” value stood at 92.5657.

On to `CCOc1cc(OCC)cc(C(=O)N2CCC3(CC2)CC(=O)c2ccc(OCC)cc2O3)c1` [CBK168014], for which the “% of control remaining” value came out at 101.791.

Take `CCc1nn(CC(=O)N2CCCCC2)c(=O)c2cc3ccsc3n12` [CBK284119]: the “% of control remaining” value is recorded as 87.8205.

Consider `COc1ccc(C(=O)Nc2cccnc2N2CCNCC2)cc1` [CBK029421T], for which the “% of control remaining” value was determined as 73.397.

For the compound `Cc1nc2cc(C(=O)N3CCCCC3CN3CCOCC3)ccc2[nH]1` (stereo not drawn) [CBK304219], the “% of control remaining” value was 56.8052.

`Clc1ccc(C2N(Cc3ccccc3)CCC3CCCCN32)cc1Cl` (stereo not drawn) [CBK028769]: the “% of control remaining” value came out at 55.0008.

In the case of `Cc1ccc(S(=O)(=O)Nc2sccc2C(=O)O)cc1` [CBK042244], the “% of control remaining” value amounted to 116.926.

Take `CCOC(=O)N/N=C1\CCSc2sccc21` [CBK006300]: the “% of control remaining” value amounted to 46.1681.

Consider `Cc1ncc(S(=O)(=O)N2CCC(OCc3ccncc3)C2)s1` (stereo not drawn) [CBK305483], for which the “% of control remaining” value was 94.4097.

Turning to `Clc1ccc(SCCCSc2ncccn2)cc1` [CBK266400], the “% of control remaining” value is listed as 121.645.

On to `O=C(O)C(CC1COc2ccccc2O1)C(=O)O` (stereo not drawn) [CBK276280], for which the “% of control remaining” value turned out to be 107.272.

Regarding `COC(=O)c1cn([C@H]2CO[C@H]3[C@@H]2OC[C@@H]3NS(=O)(=O)Cc2ccccc2)nn1` [CBK289498], the “% of control remaining” value was found to be 105.39.

On to `CCOC(=O)C1CCCCN1Cc1ccc(OC)c(O)c1` (stereo not drawn) [CBK261560], for which the “% of control remaining” value amounted to 102.848.

For the compound `O=C(NCCc1c[nH]cn1)NC12CC3CC(CC(C3)C1)C2` [CBK269880], the “% of control remaining” value is 74.4795.

As to `O=C(C[C@@H]1CCNC[C@@H]1Cc1cc(-c2ccccc2)on1)NC1CC1` [CBK289146], the “% of control remaining” value turned out to be 96.1839.

Regarding `CC(=O)[C@H]1C[C@@H](CC(=O)N2CCN(c3ccc(C(F)(F)F)cc3)CC2)C1(C)C` [CBK091330], the “% of control remaining” value worked out at 112.843.

For `CNC(=O)c1ccc(-c2cnc(NCC3CCN(C(=O)OC(C)(C)C)CC3)cn2)cc1` [CBK173726], the “% of control remaining” value stood at 131.496.

Take `COc1ccc(-c2nc(NC(=O)CSc3n[nH]c(N)n3)ns2)cc1` [CBK267236]: the “% of control remaining” value is recorded as 120.902.

As for `CCCNc1nc(-c2cccc(O)c2)cn2ccnc12` [CBK066395], the “% of control remaining” value came to 61.3109.

Turning to `CCOC(=O)c1sc(NS(=O)(=O)c2cccc3cccnc23)nc1C` [CBK047443], the “% of control remaining” value worked out at 88.0075.

As to `COc1ccc(-c2ccc(OC)cc2C(=O)Nc2ccc3c(c2)N(C)C(=O)CO3)cc1` [CBK285650], the “% of control remaining” value is recorded as 82.9736.

As for `Fc1ccccc1COc1cccc(CNCc2ccccn2)c1` [CBK268552C], the “% of control remaining” value was determined as 101.963.

Turning to `O=[N+]([O-])c1ccc(/C=N/c2ccc(Cc3ccc(/N=C/c4ccc([N+](=O)[O-])s4)cc3)cc2)s1` [CBK261228], the “% of control remaining” value is listed as 105.054.

`Cc1cc(S(=O)(=O)NCCn2nc(C)c(C)c2C)ccc1F` [CBK281382]: the “% of control remaining” value was found to be 106.162.

As to `O=C(O)COc1ccccc1/C=N/n1c(S)nnc1-c1cccnc1` [CBK265337], the “% of control remaining” value stood at 107.214.

For `COc1cc(NC(=O)C2CCN(S(=O)(=O)c3cccs3)CC2)c(Cl)cc1C(=O)O` [CBK297085], the “% of control remaining” value is reported as 83.6268.

Consider `O=c1cc(N2CCCCC2)cnn1CCCn1cccn1` [CBK306907], for which the “% of control remaining” value worked out at 119.616.

Consider `CC1CCc2sc(C(=O)N3CCC4(CC3)NC(=O)NC4=O)cc2C1` (stereo not drawn) [CBK304992], for which the “% of control remaining” value is on record as 58.191.

On to `O=C(Cn1cc(Br)ccc1=O)NC1CCN(CCc2ccccc2)CC1` [CBK305887], for which the “% of control remaining” value was found to be 37.775.

For the compound `CCCC/C=C/c1cncc(N2CCN(c3ccccc3C#N)CC2)n1` [CBK037369], the “% of control remaining” value was found to be 90.5825.

As for `O=C(NNC(=O)C(O)c1ccccc1)NC1CCCCC1` (stereo not drawn) [CBK262625], the “% of control remaining” value came out at 95.5762.

As to `N#Cc1ccc(OCC(=O)Nc2ncccn2)cc1` [CBK304578], the “% of control remaining” value is given as 33.6082.

Turning to `CCCCCC(=O)Nc1c(C)cc(Br)cc1C` [CBK058159], the “% of control remaining” value was 67.7953.
